Experimental data taken from the supplement of paper PMC12423691.
The other results are listed elsewhere or left out. Binding of human transcription factors and regulators to the viral nucleoprotein by AlphaScreen, crude cell-free proteins, amounts not normalised, one pass. Fold of the Venus control; higher = more signal. No active / inactive call. Single-pass screen; sequences are the whole Swiss-Prot entries looked up by name.

B1: IRF4, Q15306 (protein)
chain: MNLEGGGRGGEFGMSAVSCGNGKLRQWLIDQIDSGKYPGLVWENEEKSIFRIPWKHAGKQDYNREEDAALFKAWALFKGKFREGIDKPDPPTWKTRLRCALNKSNDFEELVERSQLDISDPYKVYRIVPEGAKKGAKQLTLEDPQMSMSHPYTMTTPYPSLPAQQVHNYMMPPLDRSWRDYVPDQPHPEIPYQCPMTFGPRGHHWQGPACENGCQVTGTFYACAPPESQAPGVPTEPSIRSAEALAFSDCRLHICLYYREILVKELTTSSPEGCRISHGHTYDASNLDQVLFPYPEDNGQRKNIEKLLSHLERGVVLWMAPDGLYAKRLCQSRIYWDGPLALCNDRPNKLERDQTCKLFDTQQFLSELQAFAHHGRSLPRFQVTLCFGEEFPDPQRQRKLITAHVEPLLARQLYYFAQQNSGHFLRGYDLPEHISNPEDYHRSIRHSSIQE
B2: ZNF483, Q8TF39 (protein)
chain: MQAVVPLNKMTAISPEPQTLASTEQNEVPRVVTSGEQEAILRGNAADAESFRQRFRWFCYSEVAGPRKALSQLWELCNQWLRPDIHTKEQILELLVFEQFLTILPGEIRIWVKSQHPESSEEVVTLIEDLTQMLEEKDPVSQDSTVSQEENSKEDKMVTVCPNTESCESITLKDVAVNFSRGEWKKLEPFQKELYKEVLLENLRNLEFLDFPVSKLELISQLKWVELPWLLEEVSKSSRLDESALDKIIERCLRDDDHGLMEESQQYCGSSEEDHGNQGNSKGRVAQNKTLGSGSRGKKFDPDKSPFGHNFKETSDLIKHLRVYLRKKSRRYNESKKPFSFHSDLVLNRKEKTAGEKSRKSNDGGKVLSHSSALTEHQKRQKIHLGDRSQKCSKCGIIFIRRSTLSRRKTPMCEKCRKDSCQEAALNKDEGNESGEKTHKCSKCGKAFGYSASLTKHRRIHTGEKPYMCNECGKAFSDSSSLTPHHRTHSGEKPFKCDDCGKGFTLSAHLIKHQRIHTGEKPYKCKDCGRPFSDSSSLIQHQRIHTGEKPYTCSNCGKSFSHSSSLSKHQRIHTGEKPYKCGECGKAFRQNSCLTRHQRIHTGEKPYLCNDCGMTFSHFTSVIYHQRLHSGEKPYKCNQCEKAFPTHSLLSRHQRIHTGVKPYKCKECGKSFSQSSSLNEHHRIHTGEKPYECNYCGATFSRSSILVEHLKIHTGRREYECNECEKTFKSNSGLIRHRGFHSAE
B3: RPS6KA4, O75676 (protein)
chain: MGDEDDDESCAVELRITEANLTGHEEKVSVENFELLKVLGTGAYGKVFLVRKAGGHDAGKLYAMKVLRKAALVQRAKTQEHTRTERSVLELVRQAPFLVTLHYAFQTDAKLHLILDYVSGGEMFTHLYQRQYFKEAEVRVYGGEIVLALEHLHKLGIIYRDLKLENVLLDSEGHIVLTDFGLSKEFLTEEKERTFSFCGTIEYMAPEIIRSKTGHGKAVDWWSLGILLFELLTGASPFTLEGERNTQAEVSRRILKCSPPFPPRIGPVAQDLLQRLLCKDPKKRLGAGPQGAQEVRNHPFFQGLDWVALAARKIPAPFRPQIRSELDVGNFAEEFTRLEPVYSPPGSPPPGDPRIFQGYSFVAPSILFDHNNAVMTDGLEAPGAGDRPGRAAVARSAMMQDSPFFQQYELDLREPALGQGSFSVCRRCRQRQSGQEFAVKILSRRLEANTQREVAALRLCQSHPNVVNLHEVHHDQLHTYLVLELLRGGELLEHIRKKRHFSESEASQILRSLVSAVSFMHEEAGVVHRDLKPENILYADDTPGAPVKIIDFGFARLRPQSPGVPMQTPCFTLQYAAPELLAQQGYDESCDLWSLGVILYMMLSGQVPFQGASGQGGQSQAAEIMCKIREGRFSLDGEAWQGVSEEAKELVRGLLTVDPAKRLKLEGLRGSSWLQDGSARSSPPLRTPDVLESSGPAVRSGLNATFMAFNRGKREGFFLKSVENAPLAKRRKQKLRSATASRRGSPAPANPGRAPVASKGAPRRANGPLPPS

Target: nucleoprotein N of Crimean-Congo hemorrhagic fever virus
Experiment: AlphaScreen luminescence signal relative to Venus negative control (fold); higher = stronger binding to CCHFV N
Experimental: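 AlphaScreen binding of cell-free made, FLAG-GST-tagged human transcription factors and regulators (crude translation products) to biotinylated N protein; signal as fold of the FLAG-GST-Venus control. One pass.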

| Binder | AlphaScreen luminescence signal |
| --- | --- |
| B1 | 3.3 |
| B2 | 1.81 |
| B3 | 2.33 |
